# According to the supplement of paper PMC11417369:
# The other results are listed elsewhere or left out.
# System: PfAP2-HC AP2 domain (GST-tagged)
# Assay: gcPBM binding intensity (ln(normalized median fluorescence intensity)); higher = stronger DNA binding
# Method in brief: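 GST-tagged P. falciparum DNA-binding domains produced in E. coli were incubated for 1 h on an Agilent 4 × 180k array of primer-extended double-stranded 36-bp intergenic genomic probes with negative controls. Binding intensity is the highest Masliner-normalised natural-log median intensity across replicate spots of either probe orientation, with bound protein detected by Alexa488 anti-GST antibody at 488 nm.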
row,Sequence,gcPBM binding intensity (ln)
1,AATGTAAAACCTCCTACACACACCAATTAACTATTC [CACACA_site2112],10.2
2,TACTTATCGTTAAATTGTACTAAAAAATATTTTTCT [XGTACX_site4665],9.64
3,AGGGAATATTTTTATGCATGTGCTTACACATTACAA [TGCATGCA_site830],9.75
4,AAAAAAAACGGACACACACACATACAAAATATATAT [CACACA_site4910],10.8
5,TTCTAATATTTACATAATATATAGAAATATAAAGGT [XGTACX_negctrl_site504],9.56
6,AAATATAAACTCAGCACACAAACATATATATGTCAT [CACACA_site4004],9.99
7,ATGGTATAAAAAAATACACACTTATATATATTCTTA [CACACA_site4427],9.69
8,TTTTTTTTTTTTTCTCGTACAAAATAATACCTTTTT [XGTACX_site3867],9.44
9,GTAGACATTATAATGGTGCAAAAAAATTAACAAAAA [GTGCAC_site9891],9.86
10,AAGTATGCGTTATATACACACATACATTTATATATC [CACACA_site6207],9.91
11,TCAGAGTGAAGTTATACACACATGGTTTTTTTTTTT [CACACA_site2116],9.69
12,AGAGAGAAAGCTATAACATGCAACAATTTTTAGAAA [TGCATGCA_site95],9.63
13,AGGAGGATATTACACAGTACCCAGTAACTCTACGGA [XGTACX_site1998],9.74
14,GTAATATATTTTTATGGTACACGAACTAGCCAAAAA [XGTACX_site6307],9.62
15,TAATATATTTATAAGTGTACACATTATATAAATCCC [XGTACX_site8875],9.64
16,AGTAATAACTATATATGTACATATATATATTATTAG [XGTACX_site1113],9.71
17,CCGCATTTTACAGACACACACAATTTATATTACGGT [CACACA_site6974],9.95
18,TTTTTTTGATAAAAGGTGCTACAAGATGAATACATA,9.4
19,TTTTTTTTTTTAAATACATGCATGTCCTATTTAAAT [TGCATGCA_site494],9.8
20,ATAAATAAAAAAAAAAAAAAAAAAAAAAAAAAAATA [CACACA_negctrl_site1064],9.31

row,Sequence,gcPBM binding intensity (ln)
1,GTTGTATAAAATAATACATGCATGTCCTACATATAT [TGCATGCA_site162],10.2
2,TATATTATTTATTTTTGTACATATTATGAATGAATA [XGTACX_site3971],9.51
3,TTACCTTTAAATGGATGTACAGAAATTTAAATTGTT [XGTACX_site7044],9.53
4,CTTCCTTCTAAATGCACACGGAAAGTATAAATGTAT [CACACA_site2501],9.62
5,TATATACAAAAAATATGTACATATATATATATATAT [XGTACX_site3497],9.94
6,AGAGATATAAGAAAAGCACACACACCCAAAAAAAAA [CACACA_site8917],10.5
7,AAAAAATAAATAAATACACACACACTAATATATATA [CACACA_site8488],10.6
8,ATTATTTATATTATGGTGCATAATTTTGGGTTTCTT,9.71
9,TATTTGTTTTTATATAGTACATAAATATATATATAT [XGTACX_site7834],9.7
10,AAAATAAATATGAACACACACATTTATGCCTTTAAA [CACACA_site1271],10
11,CCTCTTAATATGTGCACACTAAATTATAACATAATT [CACACA_site3259],9.95
12,GGTTAACATAAATATATACACACCAATGATGGCATT [CACACA_site1568],9.76
13,TGAAAAGTAAAATACACACACATAATCTAATTTATA [CACACA_site7024],10.1
14,TATATTATTTATTAGACACACATTATTAATATATTT [CACACA_site1078],9.79
15,TGGATTTTGTATTAATGTACATATATATATATATAT [XGTACX_site4442],9.73
16,CAGATAGACTTATATGCATGCATTCACATACCAACA [TGCATGCA_site163],9.65
17,AACAACATTTTGTAATGTACATATTTACTTATATTC [XGTACX_site7251],9.7
18,AAATAATTAGAAATAGTGCACATAATTAAGGGATAC,10.1
19,TAGAAATATATAAATTGTACATGTTTGTATAATATA [XGTACX_site2097],9.62
20,ATAATATCATCAAACGCACACATACATAAATATATT [CACACA_site5230],10

row,Sequence,gcPBM binding intensity (ln)
1,ACATATTATATGAATACACACAAAAACTTATCGGTA [CACACA_site3439],9.98
2,TATTTTTATAATATATGTACATATATATATATATTA [XGTACX_site5343],9.69
3,TTTTTTTTTTTTTTTTGTACGTAAAAAAATATATAC [XGTACX_site1290],9.11
4,TTGTTATATTACAGTAGTACATTTAAAATCTACTAC [XGTACX_site2620],9.62
5,ATTTTTATTTACAACCCCAAAAAGGAAAAACATAAA [CACACA_negctrl_site1169],9.5
6,AATATTTATACTATAACACACATACAGACAAAAAAA [CACACA_site6396],9.94
7,TTACATTATATACATACACACCCACCCACAAAAAAA [CACACA_site8187],10.3
8,AAGACAATATATGCAGTGCATATACATACATATATA,9.7
9,GCATAATATACTCTTACACACCATTTCTAAATACAT [CACACA_site4912],9.99
10,AAAAAAAAAAAAAAAAGTACGTATTTTTTTTAAAAT [XGTACX_site2654],9.49
11,ACAGGAAAAAACAATTGTACATGTATATATATATAT [XGTACX_site7677],10
12,ATATATATATATATATGTACATATTTTATTTGAAAT [XGTACX_site7411],9.83
13,CAAAATAAAAATTAATGTACATAAAAAATGAATATA [XGTACX_site1085],9.88
14,AAAAAAATAATTTGTAGTACGATTCAATGAAAAGGC [XGTACX_site1287],9.92
15,ATACATATATACATATGTACATATATATATATATAT [XGTACX_site8206],9.77
16,TTGAAAATGAAAAAATGTACTTAAAAAAAAGGAACA [XGTACX_site8664],9.73
17,TCTTTGAATTTTTTAACACACACATGGGTGGATATA [CACACA_site8474],9.84
18,ATAAAATTGTATAACTGTACATATATATATATATAT [XGTACX_site5596],9.91
